The list shows a part of the results.

T1: UNK ZnF1-3 (human, UniProt Q9C0B0 31-174)
T1 sequence: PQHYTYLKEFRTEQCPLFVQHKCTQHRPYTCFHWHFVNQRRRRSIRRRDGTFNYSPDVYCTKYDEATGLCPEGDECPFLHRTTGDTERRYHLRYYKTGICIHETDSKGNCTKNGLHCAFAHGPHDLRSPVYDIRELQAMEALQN

B1: 19455474_19464526_8968_CDS_ENSG00000127481_ENST00000375254|human|control|control (ssRNA)
RNA: GGGAGUUCUACAGUCCGACGAUCCAUGUAUGGGAUGGCCCGGACACCGCCAACGUUUCGUAAUUGAGGCAGGGUCUGCAGUAAUCUCUCCAACAGCAUUAGACGGACCAUGUGCAGCCUGUUGCUAGUGUGGACAUCUCCUUCCAACAGAGGAUUGAGCAUCA
B2: chr16:36085169:36085170:+_ENSMUSG00000075229_ENSMUST00000164916|mus_mus|motif|central (ssRNA)
RNA: GGGAGUUCUACAGUCCGACGAUCCUUUAAUAACGUUAAGUCAUCCAGGUUCUUUUCUCUCUCUUCUCGGAGACUUUUUACGGCUGCUGAGGUCUGGGCUAUACAGUUCUUUAUAACUCUGUCCCUACUGACAUGAGCUGCCAUCAACAGAGGAUUGAGCAUCA
B3: chr3:96579679:96579680:+_ENSMUSG00000028098_ENSMUST00000029740|mus_hu|FALSE|FALSE (ssRNA)
RNA: GGGAGUUCUACAGUCCGACGAUCGUGGAGGUCUUGCUCCCCAGAAGUCAGUGUGAGUCUGGUGACCCCUUUCAUUGGCUCUAUUAUCUUGGUCCAGUGGACUGCUACUUAGAAAGGGUCUAAAAUCUUGAAAAAACAUCGUGUCAACAGAGGAUUGAGCAUCA
B4: chr2:175006660:175006661:-_ENSG00000138430_ENST00000344357|hu_hu|motif|central (ssRNA)
RNA: GGGAGUUCUACAGUCCGACGAUCUAUAAUGGGCCCAAUCAUUUCCUCAUCUUUAAGCUGAAGCUCUUCAUGUAUUAUUUCGGUAUCUCGAAUAGGAUCUACACUUCCUUCAACGUGCGUGAUAUCAUCAUCUUCAAAAGCACGCAACAGAGGAUUGAGCAUCA
B5: chr16:18254220:18254221:-_ENSMUSG00000022718_ENSMUST00000009321|mus_hu|FALSE|FALSE (ssRNA)
RNA: GGGAGUUCUACAGUCCGACGAUCUGGGGGGGGGGGGGGGGCGCACAGAGACCACAAGAGUAUGGCAGCACCUGCUGUGGUGGUGCCUGGGAACAGCAAGACACAGCGAGGCUCCCCAACCUUUAGGGGAACACAUGUGCACGACAACAGAGGAUUGAGCAUCA
B6: 16358949_16359069_114_3pUTR_ENSMUSG00000022789_ENSMUST00000023477|mouse|control|control (ssRNA)
RNA: GGGAGUUCUACAGUCCGACGAUCCGCCUCCAUGACCCCCGAAACACUGGACCCCCAACCCAGCAGGCCACUGCAAUGAAUGGGGACUCGACCCACAGCCCGCUUGCUUCCUCUUCUCCUCCGCCCUUUCCUCGGGAGCCCGCACAACAGAGGAUUGAGCAUCA
B7: chr18:40848303:40848304:-_ENSG00000132872_ENST00000255224|hu_hu|motif|central (ssRNA)
RNA: GGGAGUUCUACAGUCCGACGAUCAGUUGCAAAUAGUUUUACUCAACUUUUCACACUCAAAAACACUUUAAAUUUUAAAAGCGGAAAACUAUUUACAAAUUAUCCAUUUUAAUUUUAAAAAUGUUUGUUGUUGGUUUCAUUGUUCAACAGAGGAUUGAGCAUCA
B8: chr7:141441981:141441982:+_ENSG00000106028_ENST00000265304|hu_mus|hu_hu_hu_mus_False|1_1 (ssRNA)
RNA: GGGAGUUCUACAGUCCGACGAUCCUCAUGUCUUACAAACUGACGAAAUACCUGUAACACAGGUCUUCGAAACAUGGCUUCUGUUUUUCUUACAACCUAAUCUUUAGGCUUUUCCUAAAGGAAAGAAAGAAAAGAGAAGCCCAGCAACAGAGGAUUGAGCAUCA
B9: chr3:16083472:16083473:+_ENSMUSG00000047213_ENSMUST00000108345|mus_mus|motif|central (ssRNA)
RNA: GGGAGUUCUACAGUCCGACGAUCCGAACCAUUUUGUACUGAAACUUUAUUUCCUUGCCCUUUAGGUCUCUGAUCCACGCGGGUGGCUGACAUUCUUCACCGUAACCCGAGAGGAACCGCCGCCGCCGCCGCCGCUGCCUGGGCCAACAGAGGAUUGAGCAUCA
B10: chr8:104447970:104447971:+_ENSG00000164934_ENST00000297579|hu_hu|hu_hu_hu_mus_False|78_88 (ssRNA)
RNA: GGGAGUUCUACAGUCCGACGAUCAUACACUUCCCUGCUUCGGCUCUUGUCUACAGGAAAGAUUCGAAUAGACUUAUCAAAGCUGGCAGACACAAAUUCCUUCCCAGUGGGAGAGUAGUCCACAUCAAGUACUGCAGACACGUGCAACAGAGGAUUGAGCAUCA
B11: chr10:98431539:98431540:+_ENSMUSG00000019943_ENSMUST00000020107|mus_hu|FALSE|FALSE (ssRNA)
RNA: GGGAGUUCUACAGUCCGACGAUCCGUAAUUCCAAAGUCUCCAUCAUGAUUAGCUUCCUUCAAAGAGUUUUUCACACCACUGUAAGCAACUGAGUUGUUUGCCAUGUCGCCCAUUACAAGUAUAAUAUAUCAGAAGGAAAAUGUCAACAGAGGAUUGAGCAUCA
B12: chr13:108516651:108516652:-_ENSMUSG00000032846_ENSMUST00000105097|mus_hu|motif|central (ssRNA)
RNA: GGGAGUUCUACAGUCCGACGAUCAUCAUGCGCCAUUAAGAAGGUCUCUCGGGCUUUGCUGAGGAACUCUAUAAACUCACGGUAGUGCCGAGGACUGAUGUGUGUGAGCCGUGAGUGCGUUGUGUUGAUGUAGGCCCCGAUCGUCAACAGAGGAUUGAGCAUCA
B13: 127924370_127924490_3061_CDS_ENSMUSG00000025369_ENSMUST00000099131|mouse|control|control (ssRNA)
RNA: GGGAGUUCUACAGUCCGACGAUCUCCAGCAGCCCCGGUGGGAGGUAUGGGCUGGGAGCCUGGGGGCAAGGUUGGUGGCUGCUGCUGCUGCUGCUGGUGCAUCUGCUGGAAGUGCUGCUGCCGGGCCCUCAUCUCUGCAUACUUCAACAGAGGAUUGAGCAUCA
B14: 129069043_129072782_2106_CDS_ENSMUSG00000034951_ENSMUST00000057576|mouse|control|control (ssRNA)
RNA: GGGAGUUCUACAGUCCGACGAUCAUUGUCAGCCAUGUUGUCCAACUCGGGAAGUUCAUCCCCUUGCUCAGGAGGGAAUGGCAGCUUCCCAGCAUGCAAGGCCAACUCUAAUGCAGAGUCCUCUUGAGUCACAAAUGGCUCAAGCAACAGAGGAUUGAGCAUCA

The target in this test is T1, UNK ZnF1-3. Nature of the test: nsRBNS (natural sequence RNA bind-n-seq); RBNS binding buffer (assumed for nsRBNS): 25 mM Tris pH 7.5, 150 mM KCl, 3 mM MgCl2, 0.01% Triton X-100, 500 ug/ml BSA, 20 U/ml SUPERase-In, 4 C; UNK is unkempt and MSI1 is Musashi-1; names of the RNAs are library labels; protein concentration not given here; high values mean tight binding.
The molecule B1 yielded a binding signal of 0.89 enrichment R.

B2: the binding signal turned out to be 0.496 enrichment R.

As to B3, the binding signal was determined as 0.722 enrichment R.

For B4, the binding signal amounted to 0.782 enrichment R.

Molecule B5 registered a binding signal of 1.23 enrichment R.

On to B6, for which the binding signal is 1.36 enrichment R.

B7 displayed a binding signal of 0.806 enrichment R.

Consider B8, for which the binding signal amounted to 0.368 enrichment R.

Consider B9, for which the binding signal was 0.897 enrichment R.

Regarding B10, the binding signal was 0.981 enrichment R.

B11: the binding signal stood at 1.25 enrichment R.

B12 displayed a binding signal of 0.756 enrichment R.

As to B13, the binding signal was 1.14 enrichment R.

B14 came in with a binding signal of 0.225 enrichment R.

The values are drawn from publication PMC12136788.
